# Data: article PMC5700166
# The list shows a part of the results, in another mix than the full data. The list includes weakly bound sequences.
# Legend:
# Assay in all cases: protein-binding microarray (PBM)
# Details in all cases: PBM: ~300 nM protein, 6 mM HEPES pH 7.8, 80 mM KCl, 0.5 mM EDTA, 0.5 mM EGTA, 6% glycerol, 35 ng/ul poly-dIdC, 1% milk, 1 h, room temperature; Ap Aiptasia and Nv Nematostella (sea anemones) / Co Capsaspora / Aq Amphimedon (sponge) / Dm Drosophila / Hu human; RHD is the Rel homology domain; high values mean tight binding; most listed sequences are background and not binding sites; double strand, one strand shown
# [1] = target: T1, GST-Ap-NF-kB RHD (UniProt A0A913YAJ5)
# T1 sequence: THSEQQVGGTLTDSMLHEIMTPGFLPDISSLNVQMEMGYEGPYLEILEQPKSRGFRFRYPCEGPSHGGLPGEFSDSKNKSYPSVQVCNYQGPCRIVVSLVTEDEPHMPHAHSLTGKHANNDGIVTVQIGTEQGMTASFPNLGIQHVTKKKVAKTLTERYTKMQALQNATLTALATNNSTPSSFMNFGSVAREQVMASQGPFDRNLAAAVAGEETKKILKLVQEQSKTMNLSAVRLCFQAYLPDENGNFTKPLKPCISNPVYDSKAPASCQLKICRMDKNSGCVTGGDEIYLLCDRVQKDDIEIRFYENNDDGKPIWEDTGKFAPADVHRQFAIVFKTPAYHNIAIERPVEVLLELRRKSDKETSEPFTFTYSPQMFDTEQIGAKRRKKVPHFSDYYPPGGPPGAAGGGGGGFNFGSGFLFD
# [2] = target: T2, GST-Nv-NF-kB (Cys allele) (UniProt E5G601)
# T2 sequence: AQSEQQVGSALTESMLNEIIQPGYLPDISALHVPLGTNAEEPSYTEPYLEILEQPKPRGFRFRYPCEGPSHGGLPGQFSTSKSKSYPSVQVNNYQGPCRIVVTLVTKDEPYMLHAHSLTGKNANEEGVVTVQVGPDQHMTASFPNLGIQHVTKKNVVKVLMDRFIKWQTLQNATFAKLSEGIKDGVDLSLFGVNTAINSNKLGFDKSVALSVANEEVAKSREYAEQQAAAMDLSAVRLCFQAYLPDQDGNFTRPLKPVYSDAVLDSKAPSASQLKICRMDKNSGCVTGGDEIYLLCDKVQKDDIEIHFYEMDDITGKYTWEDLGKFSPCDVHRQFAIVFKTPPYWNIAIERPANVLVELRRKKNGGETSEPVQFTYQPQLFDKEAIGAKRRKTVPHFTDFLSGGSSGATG
# [3] = target: T3, GST-Co-NF-kB (UniProt F1ARL5)
# T3 sequence: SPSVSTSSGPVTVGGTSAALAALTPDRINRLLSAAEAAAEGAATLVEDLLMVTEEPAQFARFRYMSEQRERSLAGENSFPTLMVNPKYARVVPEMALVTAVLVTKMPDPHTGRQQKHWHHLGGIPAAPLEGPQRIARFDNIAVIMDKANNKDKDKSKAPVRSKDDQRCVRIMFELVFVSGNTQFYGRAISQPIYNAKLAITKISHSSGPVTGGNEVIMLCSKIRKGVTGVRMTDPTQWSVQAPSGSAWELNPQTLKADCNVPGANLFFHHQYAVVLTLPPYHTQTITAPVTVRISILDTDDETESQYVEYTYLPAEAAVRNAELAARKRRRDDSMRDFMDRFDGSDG
# [4] = target: T4, GST-Dm-Relish (UniProt Q94527)
# T4 sequence: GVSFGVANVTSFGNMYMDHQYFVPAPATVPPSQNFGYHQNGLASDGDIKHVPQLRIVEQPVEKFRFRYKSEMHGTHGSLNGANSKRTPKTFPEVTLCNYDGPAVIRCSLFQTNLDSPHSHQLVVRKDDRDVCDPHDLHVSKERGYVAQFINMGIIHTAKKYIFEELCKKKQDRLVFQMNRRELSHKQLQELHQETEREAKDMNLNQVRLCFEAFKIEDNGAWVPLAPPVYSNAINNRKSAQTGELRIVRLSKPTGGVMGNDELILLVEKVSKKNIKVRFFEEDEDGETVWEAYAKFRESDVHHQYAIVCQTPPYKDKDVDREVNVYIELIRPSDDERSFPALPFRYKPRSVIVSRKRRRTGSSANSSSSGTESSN
# [5] = target: T5, GST-Aq-NF-kB (UniProt A9Y5G7)
# T5 sequence: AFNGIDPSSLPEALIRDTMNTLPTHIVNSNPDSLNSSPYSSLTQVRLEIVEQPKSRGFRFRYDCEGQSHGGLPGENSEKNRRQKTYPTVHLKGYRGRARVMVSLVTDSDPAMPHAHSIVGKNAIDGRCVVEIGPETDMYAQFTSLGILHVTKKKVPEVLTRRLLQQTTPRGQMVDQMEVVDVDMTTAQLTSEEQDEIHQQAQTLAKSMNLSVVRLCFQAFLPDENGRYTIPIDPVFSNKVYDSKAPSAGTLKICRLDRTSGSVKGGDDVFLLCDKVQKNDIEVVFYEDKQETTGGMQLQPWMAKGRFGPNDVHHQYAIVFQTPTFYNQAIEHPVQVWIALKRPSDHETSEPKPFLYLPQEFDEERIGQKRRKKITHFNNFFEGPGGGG
sequence,measurement,setting,value
CCGATTAACATCAGTTTGTATTCTGATGTTAATCGGGTCTTGATTCGCTTGACGCTGCTG,binding signal,[1],-0.508 z-score
same,binding signal,[2],-0.0695 z-score
same,binding signal,[3],-0.334 z-score
same,binding signal,[4],0.264 z-score
same,binding signal,[5],-0.14 z-score
CCGATTAACATCATAAACAGCCATGATGTTAATCGGGTCTTGATTCGCTTGACGCTGCTG,binding signal,[1],-0.742 z-score
same,binding signal,[2],0.0173 z-score
same,binding signal,[3],0.0124 z-score
same,binding signal,[4],-0.072 z-score
same,binding signal,[5],-0.343 z-score
CCGATTAACATCATTCACCTTGGTGATGTTAATCGGGTCTTGATTCGCTTGACGCTGCTG,binding signal,[1],0.279 z-score
same,binding signal,[2],-0.0344 z-score
same,binding signal,[3],0.13 z-score
same,binding signal,[4],0.601 z-score
same,binding signal,[5],-0.00552 z-score
CCGATTAACATCAGAATTTCCAATGATGTTAATCGGGTCTTGATTCGCTTGACGCTGCTG,binding signal,[1],-0.195 z-score
same,binding signal,[2],0.138 z-score
same,binding signal,[3],-0.00145 z-score
same,binding signal,[4],0.687 z-score
same,binding signal,[5],0.821 z-score
CCGATTAACATCAAAACCGGACATGATGTTAATCGGGTCTTGATTCGCTTGACGCTGCTG,binding signal,[1],-0.141 z-score
same,binding signal,[2],0.327 z-score
same,binding signal,[3],0.015 z-score
same,binding signal,[4],-0.164 z-score
same,binding signal,[5],0.158 z-score
CCGATTAACATCAGCCTGTGGACTGATGTTAATCGGGTCTTGATTCGCTTGACGCTGCTG,binding signal,[1],-0.149 z-score
same,binding signal,[2],-0.886 z-score
same,binding signal,[3],-0.938 z-score
same,binding signal,[4],-0.901 z-score
same,binding signal,[5],-0.56 z-score
CCGATTAACATCACGGGTCACTCTGATGTTAATCGGGTCTTGATTCGCTTGACGCTGCTG,binding signal,[1],0.362 z-score
same,binding signal,[2],0.208 z-score
same,binding signal,[3],0.875 z-score
same,binding signal,[4],-0.307 z-score
same,binding signal,[5],0.00597 z-score
CCGATTAACATCACAGAAATGGATGATGTTAATCGGGTCTTGATTCGCTTGACGCTGCTG,binding signal,[1],-0.201 z-score
same,binding signal,[2],0.137 z-score
same,binding signal,[3],0.357 z-score
same,binding signal,[4],0.372 z-score
same,binding signal,[5],-0.166 z-score
CCGATTAACATCAGGTCAACAAGTGATGTTAATCGGGTCTTGATTCGCTTGACGCTGCTG,binding signal,[1],-0.456 z-score
same,binding signal,[2],-0.164 z-score
same,binding signal,[3],0.139 z-score
same,binding signal,[4],-0.315 z-score
same,binding signal,[5],-0.348 z-score
CCGATTAACATCACGACGATCCATGATGTTAATCGGGTCTTGATTCGCTTGACGCTGCTG,binding signal,[1],-0.218 z-score
same,binding signal,[2],-0.642 z-score
same,binding signal,[3],0.00596 z-score
same,binding signal,[4],-0.42 z-score
same,binding signal,[5],-0.495 z-score
CCGATTAACATCAACTTCGCACCTGATGTTAATCGGGTCTTGATTCGCTTGACGCTGCTG,binding signal,[1],0.795 z-score
same,binding signal,[2],-0.318 z-score
same,binding signal,[3],0.187 z-score
same,binding signal,[4],-0.461 z-score
same,binding signal,[5],-0.311 z-score
CCGATTAACATCAAGAAAAGCTATGATGTTAATCGGGTCTTGATTCGCTTGACGCTGCTG,binding signal,[1],-0.654 z-score
same,binding signal,[2],0.151 z-score
same,binding signal,[3],0.303 z-score
same,binding signal,[4],-0.513 z-score
same,binding signal,[5],-0.404 z-score
CCGATTAACATCACGGGTTGCCCTGATGTTAATCGGGTCTTGATTCGCTTGACGCTGCTG,binding signal,[1],0.584 z-score
same,binding signal,[2],0.74 z-score
same,binding signal,[3],0.83 z-score
same,binding signal,[4],0.572 z-score
same,binding signal,[5],1.04 z-score
CCGATTAACATCAGAAATCCTATTGATGTTAATCGGGTCTTGATTCGCTTGACGCTGCTG,binding signal,[1],-0.604 z-score
same,binding signal,[2],0.235 z-score
same,binding signal,[3],-0.247 z-score
same,binding signal,[4],0.421 z-score
same,binding signal,[5],-0.0785 z-score
CCGATTAACATCATGGTGGTACCTGATGTTAATCGGGTCTTGATTCGCTTGACGCTGCTG,binding signal,[1],0.666 z-score
same,binding signal,[2],0.581 z-score
same,binding signal,[3],-0.313 z-score
same,binding signal,[4],0.0972 z-score
same,binding signal,[5],-0.0425 z-score
CCGATTAACATCAGCAGTGTGCATGATGTTAATCGGGTCTTGATTCGCTTGACGCTGCTG,binding signal,[1],-0.555 z-score
same,binding signal,[2],-0.148 z-score
same,binding signal,[3],-0.0512 z-score
same,binding signal,[4],0.054 z-score
same,binding signal,[5],-0.217 z-score
CCGATTAACATCAGCAGTGCTGATGATGTTAATCGGGTCTTGATTCGCTTGACGCTGCTG,binding signal,[1],-0.547 z-score
same,binding signal,[2],0.0849 z-score
same,binding signal,[3],-1.01 z-score
same,binding signal,[4],-0.671 z-score
same,binding signal,[5],-0.591 z-score
CCGATTAACATCAGACATCTGATTGATGTTAATCGGGTCTTGATTCGCTTGACGCTGCTG,binding signal,[1],-0.229 z-score
same,binding signal,[2],-0.959 z-score
same,binding signal,[3],-0.848 z-score
same,binding signal,[4],-0.856 z-score
same,binding signal,[5],-0.575 z-score
CCGATTAACATCATCAGGTGCCTTGATGTTAATCGGGTCTTGATTCGCTTGACGCTGCTG,binding signal,[1],0.136 z-score
same,binding signal,[2],0.0686 z-score
same,binding signal,[3],-0.692 z-score
same,binding signal,[4],-0.252 z-score
same,binding signal,[5],0.13 z-score
CCGATTAACATCAGATTTCATTCTGATGTTAATCGGGTCTTGATTCGCTTGACGCTGCTG,binding signal,[1],-1.14 z-score
same,binding signal,[2],-0.777 z-score
same,binding signal,[3],-1.68 z-score
same,binding signal,[4],-0.656 z-score
same,binding signal,[5],-0.819 z-score
CCGATTAACATCAGGAAATTTGATGATGTTAATCGGGTCTTGATTCGCTTGACGCTGCTG,binding signal,[1],0.00155 z-score
same,binding signal,[2],0.642 z-score
same,binding signal,[3],-0.108 z-score
same,binding signal,[4],0.318 z-score
same,binding signal,[5],0.469 z-score
CCGATTAACATCATAGGCGTAGTTGATGTTAATCGGGTCTTGATTCGCTTGACGCTGCTG,binding signal,[1],-0.0493 z-score
same,binding signal,[2],0.032 z-score
same,binding signal,[3],-0.226 z-score
same,binding signal,[4],-0.515 z-score
same,binding signal,[5],-0.189 z-score
CCGATTAACATCACATTGATGATTGATGTTAATCGGGTCTTGATTCGCTTGACGCTGCTG,binding signal,[1],-0.311 z-score
same,binding signal,[2],-0.852 z-score
same,binding signal,[3],-0.17 z-score
same,binding signal,[4],0.14 z-score
same,binding signal,[5],-0.194 z-score
CCGATTAACATCAGATTTGTCGTTGATGTTAATCGGGTCTTGATTCGCTTGACGCTGCTG,binding signal,[1],-0.528 z-score
same,binding signal,[2],-0.591 z-score
same,binding signal,[3],-0.192 z-score
same,binding signal,[4],-0.999 z-score
same,binding signal,[5],-0.365 z-score
CCGATTAACATCAATGGAAATTCTGATGTTAATCGGGTCTTGATTCGCTTGACGCTGCTG,binding signal,[1],-0.101 z-score
same,binding signal,[2],-0.181 z-score
same,binding signal,[3],-0.0895 z-score
same,binding signal,[4],0.524 z-score
same,binding signal,[5],0.71 z-score
CCGATTAACATCAAATTTTCCGCTGATGTTAATCGGGTCTTGATTCGCTTGACGCTGCTG,binding signal,[1],0.498 z-score
same,binding signal,[2],-0.621 z-score
same,binding signal,[3],-0.0238 z-score
same,binding signal,[4],0.691 z-score
same,binding signal,[5],0.911 z-score
CCGATTAACATCAAGTGCTGAAGTGATGTTAATCGGGTCTTGATTCGCTTGACGCTGCTG,binding signal,[1],0.257 z-score
same,binding signal,[2],-0.454 z-score
same,binding signal,[3],0.247 z-score
same,binding signal,[4],-0.417 z-score
same,binding signal,[5],-0.518 z-score
